Laboratory results as given in article PMC12040169 (PLOS Biology, 2025).
The list shows a part of the results.

System: T1, C. trachomatis L2/434/Bu expressing GFP (CTL2-GFP)
T1 construct: L2/434/Bu GFP intracellular growth in HeLa cells
Set-up: species or system HeLa; C. trachomatis total inclusion area by high-content imaging, normalised to DMSO
Details: total inclusion area; 28.5 h, 10 µM; inhibitor
Procedure, shortened: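 Bulk GFP and resorufin signals were read first. Wells were then fixed, stained with Hoechst and imaged to detect GFP inclusions and host nuclei. MICs followed the previously described calculation.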

SMILES | % of control remaining
O=C(O)C1CCN(C(=O)CCN2C(=O)[C@@H]3Cc4ccccc4CN3C2=O)CC1 [CBK286682] | 117.002
CN(Cc1cc(Br)cs1)C(=O)CCc1c[nH]c2ccccc12 [CBK298268] | 42.6178
CCCNC(=O)N1CCC(n2cnc3cccnc32)CC1 [CBK282282] | 62.5193
CCc1ncc(C(=O)N(Cc2ccccn2)CC2CCCO2)cn1 (stereo not shown) [CBK307077] | 34.6299
Cn1c(N2CC[C@H](O)C2)nc2cc(C(=O)NCCn3cccn3)ccc21 [CBK307328] | 77.2239
COc1ccc2[nH]cc(CCNC(=O)[C@@H]3Cc4c([nH]c5ccccc45)C4(CCN(Cc5ccc(F)cc5)C4)N3)c2c1 (stereo partly shown) [CBK066937] | 98.6303
Nc1ncnc(NNC(=O)CNC(=O)c2ccccc2C(F)(F)F)c1[N+](=O)[O-] [CBK267186] | 135.981
Cc1cccc(C(C)(C)C)c1NC(=O)NCCc1cccs1 [CBK044530] | 93.0024
CN(C)C(CNS(=O)(=O)c1cc2c(cc1Br)NC(=O)CO2)c1ccc(F)cc1 (stereo not shown) [CBK298296] | 92.5265
Cc1ccc(S(=O)(=O)N(CC(=O)Nc2cccnc2)c2ccc(F)cc2)cc1 [CBK263968] | 111.005
Cc1ccc(S(=O)(=O)NC[C@H]2O[C@@H](CC(=O)N3CCOCC3)[C@H](O)[C@@H]2O)cc1 [CBK288924] | 81.2306
CC1CC(C)CN(C2CCN(Cc3ccccn3)CC2)C1 (stereo not shown) [CBK264639G] | 86.1178
C#CCNC(=O)N(C)C1CCN(c2ncnc3ccccc23)CC1 [CBK306109] | 45.0949
CCSCCN1CCC(Oc2nccnc2OCc2ccc(Br)cc2F)CC1 [CBK161087] | 96.1406
Cc1cc(C(=O)N2CCC3(CCN(Cc4ccccc4)C3)C2)n[nH]1 (stereo not shown) [CBK137092T] | 95.7244
CC(C)C(=O)Nc1cccc(-c2cn3ccsc3n2)c1 [CBK096253] | 117.866
Nc1n[nH]c(SCC(=O)N2CCN(C(c3ccccc3)c3ccccc3)CC2)n1 [CBK267893] | 105.479
CCOC(=O)CN1CCN(S(=O)(=O)c2ccc(F)c(F)c2F)CC1 [CBK044345] | 104.154
CC(Oc1ccc(Cl)cc1Cl)C(=O)NC(=S)Nc1ccc2c(c1)C(=O)N(C)C2=O (stereo not shown) [CBK267356] | 110.717
CCCn1c(C(=O)Nc2cccnc2)cc2c(=O)n(C)c(=O)n(C)c21 [CBK287838] | 108.711
O=C(c1ncoc1-c1ccc(F)cc1)N1CCN2CCCC2C1 (stereo not shown) [CBK282399] | 115.558
CCCc1cc(C(=O)NCCCN)cc(CCC)c1OCc1ccccc1 [CBK001736C] | 55.3004
Cc1ccccc1OCc1nnc(SCc2c(Cl)cccc2[N+](=O)[O-])n1C [CBK265846] | 121.389
CCOC(=O)CN/C(=N/O)c1c(Cl)cccc1Cl [CBK022374] | 63.2451
FC(F)(F)c1cccc(OC2CCCNC2)n1 (stereo not shown) [CBK113290] | 95.7103
CC(=O)N1CC[C@@H]2NC(=O)[C@H]3C[C@H](NC(=O)c4ccc(F)c(Cl)c4)CN3C(=O)[C@H]21 [CBK289270] | 116.111
CC(Oc1cccc(C#N)c1)C(=O)N1CCSCC1 (stereo not shown) [CBK305748] | 96.0808

SMILES | % of control remaining
O=C(O)CCN1C(=O)C(O)=C(C(=O)c2ccc(Cl)cc2)C1c1ccccc1[N+](=O)[O-] (stereo not shown) [CBK264553] | 107.677
O=C(O)CCC(=O)Nc1ccc(N2CCN(CCO)CC2)cc1 [CBK078486] | 97.4284
FC(F)(F)c1ccc2[nH]c(Cn3cncn3)nc2c1 [CBK007335] | 88.0084
CC[C@H]1CN(C(=O)C2CC2)CC[C@H]1CC(=O)NCc1ccc2c(c1)OCO2 [CBK289133] | 109.31
O=S(=O)(NCCc1ccncc1)c1ccc(Cl)c(Cl)c1 [CBK044438] | 47.7361
CCOc1cc(/C=N\NC(=O)CNc2ccccc2C)cc(Br)c1O [CBK262151] | 108.664
COCC(=O)Nc1nc2c(s1)C[C@]1(C)CC[C@@H]3[C@H](OC(=O)[C@H]3C)[C@H]1[C@@H]2C [CBK289430] | 129.273
CCCN1C(=O)N(CO)C2C1N(CO)C(=O)N2CCC (stereo not shown) [CBK263882] | 102.021
O=C(Nc1cncc(OC2CCNCC2)n1)c1cnc2ccccc2c1 [CBK036377T] | 90.1101
Cc1ccc(Nc2nc(O)ns2)cc1 [CBK026011] | 40.8342
CCCOC1CCCN(c2nccc(-c3cc(C(=O)O)ccn3)n2)C1 (stereo not shown) [CBK307703] | 42.0869
CSCCN1CCC2(CC1)CN(CCO)c1ccccc12 [CBK126771] | 90.0118
O=C(NC1CC2(CCOCC2)Oc2ccccc21)c1ccco1 (stereo not shown) [CBK285378] | 95.6884
CCOc1ccc(CNc2ccc(C3c4ccsc4CCN3C(=O)COC)cc2)cc1 (stereo not shown) [CBK286453] | 91.3651
C[C@H](Cn1nc2c(cc1=O)CCCCC2)NC(=O)C1CCCC1 [CBK284546] | 115.016
COc1ccc(-c2ccc3nnc(SCc4cccnc4)n3n2)cc1 [CBK287680] | 105.201
O=C(c1c[nH]nc1-c1cc2ccccc2o1)N1CCC(O)(C(F)(F)F)C1 (stereo not shown) [CBK305549] | 60.5671
COC(=O)c1ccc(N/C(C)=C/C(=O)c2ccc(C)o2)cc1 [CBK267057] | 91.1377
CC1CCc2c(sc(NC(=O)c3ccn(C)n3)c2C#N)C1 (stereo not shown) [CBK304682] | 42.6572
CC(=O)Nc1ccc(S(=O)(=O)Nc2ccnc(N3CCN4CCCC4C3)n2)cc1 (stereo not shown) [CBK000380C] | 91.0598
O=[N+]([O-])c1ccc(N2CCN(S(=O)(=O)c3ccc4ccccc4c3)CC2)cc1 [CBK157773] | 89.3071
CCCSc1ncc(Cl)c(C(=O)Nc2ccc(S(=O)(=O)N3CC(C)OC(C)C3)cc2)n1 (stereo not shown) [CBK269055] | 90.0603
OC(c1cccs1)C1CCN(Cc2ccc(Cn3cccn3)cc2)CC1 (stereo not shown) [CBK307454] | 82.8068
CN(C)C(=O)CN1CCN(C(=O)c2ccccc2C(=O)c2ccc(F)cc2)CC1 [CBK297921] | 138.979
NC(=O)C1(N2CCCCC2)CCN(CC(=O)Nc2ccc(Br)cc2)CC1 [CBK268364] | 108.214
Fc1cc(Br)ccc1-c1cn(-c2ccc(Oc3ccccc3)cc2)nn1 [CBK113145] | 106.196
O=C(CCCC(=O)N1CCCC1)N1CCCC1 [CBK006992] | 15.3505

SMILES | % of control remaining
Cc1cc(NC(=O)CNC(=O)c2ccccc2)no1 [CBK073427] | 82.7445
O=C(O)c1[nH]c2ccccc2c1C(c1ccc(OC2CCCC2)cc1)c1c(C(=O)O)[nH]c2ccccc12 [CBK267789] | 106.286
CCCn1nc(C)c(-c2cncn2CCN(C)C2CCCC2)c1C [CBK281790] | 118.9
CCC(CN1CCCC1)n1cncc1-c1cn(C)nc1C (stereo not shown) [CBK281459] | 90.8117
COc1cc(Nc2cncc(-c3ccc4ccccc4c3)n2)cc(OC)c1OC [CBK065176] | 26.7927
CN(C)CCNCc1ccccc1OC1CCCC1 [CBK278214C] | 97.7606
NS(=O)(=O)c1ccc(NC(=S)Nc2nn(Cc3ccc(Cl)cc3Cl)cc2Cl)cc1 [CBK267020] | 104.183
CC(=O)c1c(C)oc2ccc(N(C(C)=O)S(=O)(=O)c3ccc(C(=O)O)cc3)cc12 [CBK299790] | 104.001
Cc1cc(O)ccc1Nc1cc(-c2ccccc2N(C)C)ncn1 [CBK091051] | 59.4056
Cc1ccc(CN(Cc2cncn2C)CC2CCCO2)o1 (stereo not shown) [CBK283272] | 97.8101
COc1ccc(-c2c(C)nn(-c3ccc(Cl)nn3)c2C)c(C(=O)O)c1 [CBK005774] | 88.8826
CCNC(=O)Nc1ncc(-c2ccc3c(c2)OCCCO3)c2cccnc12 [CBK070634] | 101.897
O=C(O)CCc1ccc(-c2cccs2)n1CCOc1ccccc1Cl [CBK267885] | 107.726
Nc1ccc(C(=O)Nc2ccc(Nc3cc(-c4cc(C(F)(F)F)cc(C(F)(F)F)c4)ncn3)cc2)cc1 [CBK091091] | 144.229
COc1ccc(N2CCN(c3cncc(-c4cccs4)n3)CC2)cc1OC [CBK065687] | 75.8841
COc1ccc(N)cc1OCCn1ccnc(N2CCNCC2)c1=O [CBK024211C] | 100.356
CCn1nnnc1NCc1ccc(OCc2ccc(F)cc2Cl)c(OC)c1 [CBK268224] | 101.804
Cc1ccc(SCCN2CCNCC2)cc1 [CBK266045G] | 120.071
COc1ccccc1CC(=O)N(Cc1nc(-c2cccc(C)c2)no1)C(C)C [CBK269345] | 77.5466
COC(=O)[C@H]1CN(C(=O)c2cn(C)nc2C)C[C@@H]1c1ccc(F)cc1 [CBK283720] | 107.252
CC(C)Nc1cncc(OC2CCN(C)C2)n1 (stereo not shown) [CBK115598] | 96.2556
CN(C)CCN(C)Cc1ccc([N+](=O)[O-])cc1 [CBK261728] | 89.5346
O=[N+]([O-])c1cccc(-c2noc([C@@H]3C[C@@H](O)CN3C3CCOCC3)n2)c1 [CBK288847] | 107.427
O=S(=O)(c1ccc(-c2cncc(-c3ccc(O)cc3)n2)cc1F)N1CCOCC1 [CBK126903] | 110.795
S=C(NCCN1CCCCC1)NCc1ccco1 [CBK268171] | 125.308
